According to the supplement of paper PMC5499739:
In all, about 16,000 sequences were measured (“Z-score”: median about -0.37, highest 2% from about 3.1 on). This is one part of the list.

tested on: RBM10 RRM1-ZnF-RRM2 (GST-tagged construct); test: RNAcompete 7-mer binding Z-score; higher = stronger binding preference
Description: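 RNAcompete: 20 pmol GST-tagged RBM10 RNA-binding constructs were incubated with a designed RNA pool of about 241,000 sequences up to 41 nt (1.5 nmol) on glutathione beads for 30 min at 4 °C and washed. Bound RNAs were identified by microarray hybridisation. Each RNA 7-mer is scored by a one-sided Z-score of its enrichment, computed over probes that contain the 7-mer within longer pool sequences.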

| Sequence | RNAcompete 7-mer binding Z-score |
| --- | --- |
| AGCGAGU | 0.811 |
| CCAUGUG | -0.373 |
| AGGUCCG | -0.067 |
| GCCGCAG | -0.26 |
| UGUAUUC | -0.53 |
| UUGGAUG | 1.37 |
| CCGCAUG | -0.562 |
| CUUCAGA | -0.894 |
| CUAUCAC | -0.89 |
| CGACUCC | -0.945 |
| AACACCA | -0.504 |
| GUAUGCC | -0.504 |
| GGACACA | 0.953 |
| UUGGGCC | 0.202 |
| GGUUUGG | 2.78 |
| AAGUGUC | -0.322 |
| UUUAUAU | -0.617 |
| AACAUAC | -0.599 |
| AAGAAGC | 0.232 |
| UCUAAUG | -0.577 |
| GGCAACG | 1.18 |
| AGAGUCA | 0.166 |
| UCGCUAU | -0.704 |
| GUGUCUU | -0.442 |

| Sequence | RNAcompete 7-mer binding Z-score |
| --- | --- |
| ACCUGAG | -0.453 |
| GUGCACG | 0.487 |
| UGUAAAC | -0.231 |
| AGGGGUU | 2.42 |
| GAACUGG | 1.17 |
| UUAAUUU | -0.668 |
| GCUAUGA | -0.187 |
| CUGGGGC | 0.956 |
| CGAAUAA | -0.224 |
| UCAAUCA | -0.435 |
| CAAUGAC | -0.439 |
| UCUUUCU | -0.755 |
| UACCAUU | -0.708 |
| CGCAUUG | -0.377 |
| AUACAGC | -0.162 |
| UGGCAAU | 0.705 |
| CAGCUUU | -0.923 |
| CCAAAGU | -0.395 |
| GACCAGA | -0.162 |
| UGUCGGU | -0.0889 |
| GUCUCGC | -0.646 |
| AGUGAAG | 1.65 |
| CCAGCCU | -0.876 |
| UCCGGGG | 1.24 |

| Sequence | RNAcompete 7-mer binding Z-score |
| --- | --- |
| AGAAAGU | 0.264 |
| UAACCUU | -0.719 |
| UCGUACU | -0.446 |
| UACGCCU | -0.81 |
| UGCCUCU | -0.916 |
| GGUCUCC | -0.304 |
| GUACCUA | -0.511 |
| CUUUGAU | -0.887 |
| UACUUCU | -0.905 |
| GCCCUUC | -0.843 |
| CCUUAGA | -0.744 |
| ACUGCUC | -0.93 |
| AGCAAAC | -0.0998 |
| CCCGAAG | -0.672 |
| AACUUCA | -0.675 |
| UGUGCGU | 0.0859 |
| ACAGUAG | 0.457 |
| AACGUGA | 0.243 |
| UCCUGUG | -0.522 |
| CUAAUCG | -0.453 |
| UACCAAG | -0.122 |
| ACCUCGC | -0.715 |
| CCGAGCC | -0.781 |
| CGAGCGC | -0.267 |

| Sequence | RNAcompete 7-mer binding Z-score |
| --- | --- |
| GGGAACU | 1.32 |
| AUUCGCG | -0.409 |
| CAUUACU | -0.734 |
| AGUUCAG | -0.118 |
| UAGAAGG | 3.2 |
| UACUGAU | -0.49 |
| GUUGAAG | 1.61 |
| UCAGCGU | -0.26 |
| GGAGUUU | 0.942 |
| ACUCAAA | -0.734 |
| UAGUGGA | 1.52 |
| AAGUUGC | -0.293 |
| AGCGCCG | -0.366 |
| CCAAAUG | -0.435 |
| AACCUUG | -0.799 |
| AACGCUU | -0.741 |
| UCGAACG | -0.0598 |
| UAGAUCC | -0.49 |
| UAAGCGU | 0.0823 |
| AGAAUAG | 0.665 |
| GGUCUUC | -0.18 |
| AACGAAC | -0.0525 |
| CCCUGCA | -0.857 |
| CUGUAGA | -0.442 |

| Sequence | RNAcompete 7-mer binding Z-score |
| --- | --- |
| CAUCGUU | -0.664 |
| GUGACUG | 0.436 |
| ACGCCCU | -0.752 |
| UAUGGAG | 1.68 |
| ACGCAAA | -0.307 |
| AAUACGU | -0.195 |
| GGCGACA | 0.982 |
| AAGGGGU | 4.33 |
| CGUCGUU | -0.253 |
| CGAAAUC | -0.683 |
| CGAAAUU | -0.675 |
| AGAUCCG | -0.828 |
| GAAAACA | 0.374 |
| CUGCUAC | -0.748 |
| GCGCUCC | -0.515 |
| ACAGUAC | -0.173 |
| CGAUAUA | -0.337 |
| ACGGCGC | -0.147 |
| UGACGUG | 0.552 |
| UAUACAA | -0.133 |
| GAAGAAG | 2.62 |
| AGCGCAG | 0.312 |
| AACGGCC | -0.3 |
| UGUGGAA | 1.47 |

| Sequence | RNAcompete 7-mer binding Z-score |
| --- | --- |
| UGAGGCC | 0.133 |
| CUGUUUA | -0.948 |
| UGAUAGA | 0.184 |
| ACACCAA | -0.53 |
| AGUCAAA | -0.213 |
| GGGGAUA | 3.16 |
| GCCCGUU | -0.748 |
| AUUCGUA | -0.53 |
| GGGGCCA | 0.88 |
| AGCACCG | -0.162 |
| GAAAUUG | 0.476 |
| UAACAUC | -0.562 |
| CAUUUAA | -0.799 |
| CAUUAAU | -0.511 |
| CUUUAAU | -0.763 |
| GCAAAGC | 0.0313 |
| UACACCU | -0.704 |
| AGGUAAG | 2.74 |
| GGCAGAU | 0.829 |
| UAGCCCG | -0.639 |
| UAUAUUG | -0.406 |
| CUGCUUG | -0.868 |
| AUGGGGC | 2.6 |
| UCAUGCA | -0.602 |

| Sequence | RNAcompete 7-mer binding Z-score |
| --- | --- |
| AUCCCGG | -0.439 |
| GAGGAAG | 3.52 |
| CUCGUUU | -0.912 |
| AUUAAGC | -0.522 |
| GAGCCGG | 0.538 |
| CGGUGUC | 0.181 |
| GUCAAGA | -0.0634 |
| UUUGUAA | -0.566 |
| UACCUUC | -0.857 |
| GAUGACA | 0.607 |
| GUAGUCG | 0.301 |
| GCGGACC | 0.184 |
| GGCGGCU | 0.443 |
| AAUUGGU | 1.06 |
| GCGCAAU | -0.253 |
| UGGUAGG | 3.16 |
| GUGAAAU | 0.621 |
| AACCCCU | -0.81 |
| GCACCGA | -0.409 |
| AGUGCUA | 0.111 |
| UAGCCAU | -0.635 |
| AAACGGG | 2.9 |
| CCCCGUU | -0.817 |
| AAUGAUU | -0.293 |

| Sequence | RNAcompete 7-mer binding Z-score |
| --- | --- |
| CGGCUCG | -0.242 |
| CCUCACC | -0.726 |
| AGGUAUU | 0.618 |
| AGGAGUG | 2.8 |
| UUGGCUG | -0.271 |
| GGUCCGA | 0.151 |
| UACUAGU | -0.471 |
| AUAUCAC | -0.617 |
| UGACGGC | 0.272 |
| UCUCAUC | -0.715 |
| AAGUCGU | -0.165 |
| AGGGCCU | -0.154 |
| AAUCCGC | -0.697 |
| GGACAAU | 1.34 |
| CUGACUA | -0.668 |
| AUUUCAC | -0.741 |
| CAGGAGC | 1.47 |
| UCGGGGU | 1.76 |
| UGUUUUC | -0.664 |
| AGCUGCG | -0.122 |
| GCAAGCG | 0.603 |
| UGAGAUA | 0.119 |
| UACUACA | -0.46 |
| CUACACA | -0.599 |

| Sequence | RNAcompete 7-mer binding Z-score |
| --- | --- |
| UUUAAAU | -0.766 |
| AGGGGCC | 0.581 |
| UUCAGUA | -0.0233 |
| AGGCAGU | 0.618 |
| CUUGGUG | 0.472 |
| UGAACUA | -0.384 |
| CUCGGGU | 0.283 |
| UCAACAG | -0.158 |
| UCAGUAA | -0.195 |
| GCUUCUC | -0.883 |
| GUAACAA | 0.166 |
| UAUAUCG | -0.391 |
| UGAUGGC | 0.712 |
| AGAAGUA | 0.355 |
| CAUCCUC | -0.81 |
| GGUCAAU | 0.534 |
| UUGAACA | -0.482 |
| AACGGUG | 1.62 |
| CAUGGCC | -0.344 |
| CAAACGA | -0.00877 |
| GUACGUG | 0.505 |
| GGUAUCC | 0.151 |
| ACUAGCC | -0.774 |
| AGGCGCU | -0.18 |

| Sequence | RNAcompete 7-mer binding Z-score |
| --- | --- |
| CGCCUGG | -0.482 |
| AUAGAAG | 0.931 |
| GGCCGCC | -0.683 |
| AGACAUG | 0.166 |
| UGUGUCA | -0.592 |
| CUAUAUC | -0.668 |
| UCCGCUU | -0.897 |
| GCAGCGA | 0.894 |
| UGGCCAG | 0.264 |
| UUAUUGU | -0.548 |
| GCCCGUC | -0.719 |
| GGUAACA | 1.31 |
| CUCUGUC | -0.814 |
| UGCCUAG | -0.599 |
| CAAUUCC | -0.755 |
| CUCGACA | -0.708 |
| CGAUCCC | -0.799 |
| AGCGGGG | 3.96 |
